No constants are given. Whether binding was seen depends on the method and setting. Binding seen in cells or lysates may run through a third protein. Some results given as binding are weak or reduced against the parent protein; the word gives no strength. Sequences can lack the tags named with a protein. Values belong to the binder of their own block, whether it stands above or below them.
Target: T1, Flag-tagged Sirt2 (UniProt Q8VDQ8)
T1 sequence: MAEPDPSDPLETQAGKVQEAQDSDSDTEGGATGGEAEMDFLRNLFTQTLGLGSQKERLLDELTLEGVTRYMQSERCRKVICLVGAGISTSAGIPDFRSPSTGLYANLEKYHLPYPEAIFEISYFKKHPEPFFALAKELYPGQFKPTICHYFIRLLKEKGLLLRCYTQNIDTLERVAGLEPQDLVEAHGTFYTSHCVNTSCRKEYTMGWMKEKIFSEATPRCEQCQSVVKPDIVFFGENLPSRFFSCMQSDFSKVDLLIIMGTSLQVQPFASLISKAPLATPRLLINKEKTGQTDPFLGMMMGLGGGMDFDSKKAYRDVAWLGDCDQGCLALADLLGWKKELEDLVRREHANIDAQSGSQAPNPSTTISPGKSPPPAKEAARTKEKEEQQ
Assay: co-IP; HEK293 cells expressing Flag-tagged Sirt2 with Halo-tagged GKRP or Halo-tagged GK; immunoprecipitation and immunoblot

binding: binds
B1: Halo-tagged GKRP (protein, UniProt Q91X44 1-623)
chain: MPSTKRYQHVIETPEPGEWELSGYEAAVPITEKSNPLTRNLDKADAEKIVQLLGQCDAEIFQEEGQIMPTYQRLYSESVLTTMLQVAGKVQEVLKEPDGGLVVLSGGGTSGRMAFLMSVSFNQLMKGLGQKPLYTYLIAGGDRSVVASRERTEDSALHGIEELKKVAAGKKRVVVIGISVGLSAPFVAGQMDYCMDNTAVFLPVLVGFNPVSMARNDPIEDWRSTFRQVAERMQKMQEKQEAFVLNPAIGPEGLSGSSRMKGGSATKILLETLLLAAHKTVDQGVVSSQRCLLEILRTFERAHQVTYSQSSKIATLTKQVGISLEKKGHVHLVGWQTLGIIAIMDGVECIHTFGADFRDIRGFLIGDHNDMFNQKDELSNQGPQFTFSQDDFLTSVLPSLTEIDTVVFIFTLDDNLAEVQALAERVREKSWNIQALVHSTVGQSLPAPLKKLFPSLISITWPLLFFDYEGSYVQKFQRELSTKWVLNTVSTGAHVLLGKILQNHMLDLRIANSKLFWRALAMLQRFSGQSKARCIESLLQVIHFPQPLSNDVRAAPISCHVQVAHEKEKVIPTALLSLLLRCSITEAKERLAAASSVCEVVRSALSGPGQKRSIQAFGDPVVP

binding: no binding
B2: Halo-tagged GK (enzyme, UniProt P52792 1-465)
chain: MLDDRARMEATKKEKVEQILAEFQLQEEDLKKVMSRMQKEMDRGLKLETHQEASVKMLPTYVRSTPEGSEVGDFLSLDLGGTNFRVMLVKVGEGEAGQWSVKTKHQMYSIPEDAMTGTAEMLFDYISECISDFLDKHQMKHKKLPLGFTFSFPVRHEDIDKGILLNWTKGFKASGAEGNNIVGLLRDAIKRRGDFEMDVVAMVNDTVATMISCYYEDRQCEVGMIVGTGCNACYMEEMQNVELVEGDEGRMCVNTEWGAFGNSGELDEFLLEYDRMVDESSVNPGQQLYEKIIGGKYMGELVRLVLLKLVEENLLFHGEASEQLRTRGAFETRFVSQVESDSGDRRQILNILSTLGLRPSVADCDIVRRACESVSTRAAHMCSAGLAGVINRMRESRSEDVMRITVGVDGSVYKLHPSFKERFHASVRRLTPNCEITFIESEEGSGRGAALVSAVACKKACMLGQ
